Assay results taken from PubChem BioAssay AID686979 (National Center for Advancing Translational Sciences (NCATS), 2013).
Values joined by “and” are separate entries in the source; they are usually repeats but may differ in a detail not shown here. Equal entries are not always repeated. About 50,000 (12%) of roughly 420,000 compounds were called active. The inconclusive results got no clear call from the source; some entries with a clear call stand among them for comparison. Calls come from the whole dose curve; as a rule, active = well fitted inhibition curve with a large enough effect; inconclusive = small, poorly fitted or top-dose-only effect; inactive = flat fitted curve, though single readings scatter. Potencies of inconclusive entries are doubtful fits and often do not repeat.
% is set by controls: 0 for no effect and ±100 for the full control effect; potency is the fitted concentration of half-maximal effect; tags give direction and shape of the fitted curve.

Test: qHTS for Inhibitors of human tyrosyl-DNA phosphodiesterase 1 (TDP1): qHTS in cells in presence of CPT; note: nearly all actives have a fitted effect of over 55% in size
Conditions: chicken DT40 Tdp1-/-;hTDP1 cells + 20 nM CPT, ATP luminescence, 48 h; activity change, negative = growth inhibition: at 46.2 µM (top of the series) unless noted
In short: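 Cell growth measured by CellTiter-Glo luminescence after a minimum 48 h, 37 C compound exposure with 20 nM CPT in Tdp1-knockout DT40 cells stably expressing hTDP1, seeded 400/well; qHTS titration format.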
With Cc1cccc(NC(=O)C(C)OC(=O)c2ccccc2NS(=O)(=O)c2cc(C)c(C)c([N+](=O)[O-])c2)c1 (stereo not given) the Potency was active: 16.4 µM. For CC1(C(=O)NS(=O)(=O)c2ccc3c(c2)CCO3)CCN1C(=O)CCC1CCCC1 (stereo not given), the “activity change, negative = growth inhibition” value was inactive: -8.86%. With COc1ccc(CCNC(=O)C2CCN(C(=O)c3ccc(Br)cc3)CC2)cc1 the Potency was inconclusive: 16.4 µM [inhibitor, single point]. For CN(CC(=O)Nc1cccc(S(=O)(=O)N2CCCC2)c1)CC(=O)Nc1ccc(Cl)c(C(F)(F)F)c1, the Potency was inconclusive: 20.6 µM [inhibitor, single point]. In the case of O=C(C1CCCO1)N1CCN(c2ccc(F)cc2)CC1 (stereo not given), the “activity change, negative = growth inhibition” value is reported as inactive: -1.57%. In the case of CC(=O)Nc1ccc(NC(=S)Nc2ccccc2)cc1, the “activity change, negative = growth inhibition” value is reported as inactive: 4.15%. In the case of CCS(=O)(=O)N1Cc2ccccc2CC1C(=O)Nc1nnc(SCc2c(Cl)cccc2Cl)s1 (stereo not given), the Potency is reported as inconclusive: 29.1 µM [inhibitor, single point]. With CC(C)C(C)NC(=O)CSc1nc2scc(-c3ccco3)c2c(=O)n1-c1ccccc1 (stereo not given) the Potency was inconclusive: 9.2 µM [inhibitor, partial curve]. In the case of OC[C@H]1O[C@@H](n2cnc3cncnc32)[C@H](O)[C@@H]1O, the Potency is reported as active: 0.259 µM. With CCc1nc(SCC(=O)N2c3ccccc3Sc3ccccc32)c2ccccc2n1 the Potency was inconclusive: 23.1 µM [inhibitor, single point]. With COC(=O)c1cc(NC(=O)Nc2ccc3snnc3c2)cc(C(=O)OC)c1 the “activity change, negative = growth inhibition” value was inactive: -12.1%. In the case of O=C(Nc1cccc2ccccc12)c1ccc(Br)o1, the Potency is reported as inconclusive: 23.1 µM [inhibitor, single point]. In the case of CCn1c(O)c(N=NC2=NC(=O)CS2)c2ccccc21, the “activity change, negative = growth inhibition” value is reported as inactive: -12.3%. In the case of Cc1cccc(C)c1NC(=O)CN1C(=O)CCSc2ccc(S(=O)(=O)N3CCCC3)cc21, the Potency is reported as inconclusive: 29.1 µM [inhibitor, single point]. With Nc1ccc2c(c1)[nH]c(=O)c1ccccc12 the Potency was inconclusive: 0.103 µM [inhibitor, full curve]. For Cc1c(Br)c([N+](=O)[O-])nn1CC(=O)Nc1ccc(C(N)=O)cc1, the “activity change, negative = growth inhibition” value was inactive: 12.8%. In the case of CC1Oc2ccccc2C=C1/C=N/NC(=O)c1ccccc1O (stereo not given), the Potency is reported as inconclusive: 13 µM [inhibitor, single point]. For COC(=O)C1C(=O)c2c([nH]c(C(=O)OC3CCCC3C)c2C)CC1C (stereo not given), the Potency was active: 16.4 µM. In the case of COc1ccc(NC(=O)c2cc3c(Cl)nc4ccccc4c3s2)cc1OC, the Potency is reported as inconclusive: 25.9 µM [inhibitor, single point]. For C=CCN(CC=C)Cc1nc(N)nc(Nc2ccccc2C)n1, the “activity change, negative = growth inhibition” value was inactive: -0.539%. In the case of Cc1ccccc1-c1noc(-c2ccc(N3CCN(c4ccccc4)CC3)c([N+](=O)[O-])c2)n1, the Potency is reported as inconclusive: 6.51 µM [inhibitor, partial curve]. With CCOCCCNCC(=O)Nc1ccccc1N1CCOCC1 the “activity change, negative = growth inhibition” value was inactive: -10.4%. With c1ccc(OCc2noc(CN3CCC(C4CCCCC4)C3)n2)cc1 (stereo not given) the Potency was inconclusive: 18.4 µM [inhibitor, single point]. For CCOC(=O)N1CCN(C(=O)c2ccc(CS(=O)(=O)c3c(Cl)cccc3Cl)o2)CC1, the Potency was inconclusive: 29.1 µM [inhibitor, single point]. In the case of Cc1ccccc1Oc1ccc2c(c1)[C@@H]1C[C@H](N(C)C(=O)NC3CCCCC3)[C@H]([C@H](C)O)C(=O)N1CC2, the Potency is reported as inconclusive: 18.4 µM [inhibitor, single point]. With Cc1ccc(C(=O)N(CC#N)CC#N)cc1C the “activity change, negative = growth inhibition” value was inactive: -17.2%. For COc1ccc(C(=S)N2CCOCC2)cc1OC(=O)c1ccc([N+](=O)[O-])cc1[N+](=O)[O-], the Potency was inconclusive: 8.2 µM [inhibitor, partial curve]. With Nc1nc(NCC2CCCO2)nc(NCC2CCCO2)c1[N+](=O)[O-] (stereo not given) the “activity change, negative = growth inhibition” value was inactive: -9.74%. In the case of NS(=O)(=O)c1ccc(NC(=O)c2cnn3c2NC(=C2CC2)C=C3C(F)F)cc1, the “activity change, negative = growth inhibition” value is reported as inactive: -26.9%. For O=C(CSc1ncnc2c1oc1ccccc12)Nc1nc2ccccc2s1, the Potency was inconclusive: 29.1 µM [inhibitor, single point]. In the case of COC(=O)c1nnn(-c2nonc2N)c1COc1ccc(C=O)cc1OC, the Potency is reported as active: 14.6 µM. In the case of CC1(C)OC2CC3C4CCC5=CC(=O)CCC5(C)C4(F)C(O)CC3(C)[C@]2(C(=O)CCl)O1 (stereo not given in full), the Potency is reported as inconclusive: 29.1 µM [inhibitor, single point]. In the case of COCCCNc1nc(N)c([N+](=O)[O-])c(NC2CCCCC2)n1, the Potency is reported as inconclusive: 18.4 µM [inhibitor, partial curve]. With CC(=O)c1cn(CC(=O)Nc2ccccc2Cl)c2ccccc12 the Potency was active: 16.4 µM. For C/C(O)=C(/C=Nc1ccccc1)C(=O)Nc1ccccc1, the “activity change, negative = growth inhibition” value was inactive: -4.32%. In the case of CC(C)COc1ccc(C(=O)Nc2ccc(NC(=O)c3ccco3)c(Cl)c2)cc1, the Potency is reported as inconclusive: 9.2 µM [inhibitor, partial curve, poor fit]. With COc1ccc(Cl)cc1-c1cc(C(=O)N[C@H](C)c2ccccc2)[nH]n1 the Potency was active: 2.59 µM. With Cc1nc(-c2cccc(S(=O)(=O)N3CCOCC3)c2)cs1 the Potency was inconclusive: 25.9 µM [inhibitor, partial curve]. With O=C(NCCn1ccc2ccccc21)c1ccc(S(=O)(=O)N2CCCCC2)cc1 the Potency was inconclusive: 14.6 µM [inhibitor, single point]. For Cc1cccc(NC(=O)c2ccc([N+](=O)[O-])o2)c1, the Potency was active: 16.4 µM. With CC1CCN(C(=O)c2ccc3c(c2)N(Cc2ccccc2F)C(=O)c2ccccc2S3(=O)=O)CC1 the Potency was inconclusive: 13 µM [inhibitor, partial curve]. In the case of C=C(C)Cn1c(SCC(=O)Nc2ccccc2C)nc2sc3c(c2c1=O)CCCC3, the Potency is reported as inconclusive: 3.66 µM [inhibitor, full curve]. In the case of COc1ccc(S(=O)(=O)N2CCC(c3nc4ccccc4[nH]3)CC2)cc1, the Potency is reported as inconclusive: 18.4 µM [inhibitor, partial curve]. For COc1ccc(-c2ccnc(-c3ccc(OCCCF)cc3)n2)cc1, the Potency was inconclusive: 29.1 µM [inhibitor, single point]. With CCN(CCCNC(=O)c1c(C)cc(=O)oc1C)c1cccc(C)c1 the Potency was inconclusive: 20.6 µM [inhibitor, single point]. For NC(=O)c1cc(S(=O)(=O)Nc2ccc(OC(F)(F)F)cc2)cs1, the Potency was inconclusive: 13 µM [inhibitor, single point]. With O=C(Nc1cc2c(cc1Cl)-c1ccc([N+](=O)[O-])cc1C2=NO)C(F)(F)F the Potency was inconclusive: 23.1 µM [inhibitor, single point]. With COc1ccc(-c2nc(SCC(=O)NC3CCCC3)c(-c3ccc(OC)cc3)[nH]2)cc1 the Potency was inconclusive: 25.9 µM [inhibitor, single point] and inconclusive: 29.1 µM [inhibitor, single point]. For CC12CCC(=O)N1C(C(=O)Nc1nc(-c3ccccc3Cl)cs1)CS2 (stereo not given), the Potency was inconclusive: 25.9 µM [inhibitor, single point]. For Cn1cc(/C=N\O)nc2c(=O)n(-c3ccccc3)c(=O)nc1-2, the “activity change, negative = growth inhibition” value was inactive: 30.6%. In the case of COc1ccccc1N1CCN(C(=O)c2cc3c(=O)n(C)c4ccccc4c3s2)CC1, the Potency is reported as inconclusive: 20.6 µM [inhibitor, single point]. In the case of COC(=O)c1ccc(-n2c(C)cc(/C=N/n3cnnc3)c2C)cc1, the Potency is reported as inconclusive: 29.1 µM [inhibitor, single point]. With COc1ccccc1NC(=O)Nc1nnc(Cc2ccc(F)cc2)s1 the Potency was inconclusive: 29.1 µM [inhibitor, single point]. In the case of COc1ccc(N/C(C)=C2/C(=O)C(=O)N(CCO)C2c2ccc(Br)cc2)cc1 (stereo not given), the Potency is reported as inconclusive: 20.6 µM [inhibitor, partial curve]. In the case of COc1ccc(/C=N/NC(=O)c2ccc(Cl)cc2Cl)cc1COC(C)=O, the Potency is reported as inconclusive: 23.1 µM [inhibitor, single point]. In the case of CO/N=C/c1ccc(Oc2ccc(C)cc2)c([N+](=O)[O-])c1, the Potency is reported as inconclusive: 20.6 µM [inhibitor, single point]. In the case of Cc1ccc(C(C)(C)C)c(OCCOCCN2CCCC2)c1, the Potency is reported as active: 14.6 µM. In the case of Cc1noc(C)c1COc1ccc(CC(=O)NCc2ccccc2)cc1, the Potency is reported as active: 0.651 µM. With CN(CC(=O)Nc1ccc(F)cc1)C(=O)COC(=O)c1cc([N+](=O)[O-])ccc1N1CCOCC1 the Potency was inconclusive: 29.1 µM [inhibitor, single point]. For O=C1CC(Sc2nnnn2-c2ccccc2)C(=O)N1c1cccc(Cl)c1 (stereo not given), the Potency was active: 1.3 µM. For CCN(CC)c1nc(N(CC)CC)[nH]c(=O)n1, the “activity change, negative = growth inhibition” value was inactive: -18.4%. For COc1ccc(/C=C/c2nnc(NC(=O)CSc3ccc(Cl)cc3)s2)cc1, the Potency was active: 6.51 µM. With CCOC(=O)C1CCCN(C(=O)c2c(-c3ccccc3)noc2C)CC1 (stereo not given) the Potency was inconclusive: 16.4 µM [inhibitor, single point]. In the case of CCN(Cc1ccccc1)C(=O)Cc1c[nH]c2ccccc12, the “activity change, negative = growth inhibition” value is reported as inactive: 3.33%. With CC(C)Cn1c(=O)c2ccccc2n2c(CCC(=O)N3CCN(c4cccc(Cl)c4)CC3)nnc12 the Potency was active: 10.3 µM. In the case of COc1cc(C#N)ccc1OCC(=O)Nc1cccc(S(=O)(=O)N(C)c2ccccc2)c1, the Potency is reported as active: 11.6 µM. With CN(C)C(=S)N=c1ssc(=S)n1Cc1ccco1 the Potency was active: 1.64 µM. In the case of Cc1nn(-c2ccccc2)c(N)c1Sc1cccc([N+](=O)[O-])c1, the Potency is reported as inconclusive: 29.1 µM [inhibitor, single point]. In the case of COc1cccc2cc(C(=O)NC3CC4CCC3C4)oc12 (stereo not given), the Potency is reported as inconclusive: 11.6 µM [inhibitor, single point]. For N#Cc1cccc(C(c2nnnn2C2CCCC2)N2CCCCCC2)c1 (stereo not given), the Potency was inconclusive: 29.1 µM [inhibitor, single point].
